This is an account of results in ChEMBL document CHEMBL4888484, “Replenishing the malaria drug discovery pipeline: Screening and hit evaluation of the MMV Hit Generation Library 1 (HGL1) against asexual blood stage Plasmodium falciparum ,using a nano luciferase reporter read-out” (2022).

About 540 (0.36%) of roughly 150,000 compounds showed an effect of 50% or more. Some of the results follow.

The assay deals with Plasmodium falciparum. Kind of assay: Primary screen in NF54 nanoGlo assay, in single point, at 2uM, 72h; a lower Z score goes with more inhibition. It counts as functional, Erythrocyte. Conditions: timepoint 72 hour.
As for `CCn1nccc1S(=O)(=O)N[C@@H](C)c1nc(C2CC2)no1`, the “% Inhibition” value came out at 2% and the Z score is recorded as -0.23.

As to `CC(C)CN1CCC(N2C(=O)CN(Cc3ccc(Cl)cc3)C2=O)CC1`, the “% Inhibition” value is -12% and the Z score was found to be 2.1.

For `Cc1cnn(Cc2ccccc2Cl)c1NC(=O)c1csnn1`, the “% Inhibition” value is -3% and the Z score came to 0.39.

Take `CCn1nc([C@@H]2CCCCN2C(=O)C(C)C)c2c1CCOC2`: the “% Inhibition” value is 2% and the Z score is reported as -0.21.

Take `N#C[C@@H](NC(=O)c1ccc(NC(=O)c2ccccc2)cc1)c1cnn(-c2ccccc2)c1`: the “% Inhibition” value was 0% and the Z score is -0.01.

Turning to `CCC(c1ccc(F)cc1F)N1CCCC(C(=O)Nc2ncccc2C)C1` (stereo unspecified), the “% Inhibition” value is reported as -8% and the Z score stood at 1.03.

In the case of `Cc1nc(CC(=O)N2CCC[C@H]2c2nonc2C)cs1`, the “% Inhibition” value was -9% and the Z score was determined as 1.81.

For `O=C(N1CCCN(c2nc3ccccc3nc2-c2ccccc2)CC1)C(Cl)(Cl)Cl`, the “% Inhibition” value was 41% and the Z score is listed as -8.32.

On to `Cc1cc2oc(C(=O)N3CCC(c4nc5ccccc5o4)CC3)c(C)c2cc1Cl`, for which the “% Inhibition” value is on record as -16% and the Z score was 1.38.

Regarding `Cc1cccc(OC[C@]2(CNC(=O)C3CCCC3)C[C@@H](O)[C@@H](O)C2)n1`, the “% Inhibition” value was determined as 2% and the Z score is listed as -0.39.

`O=S(=O)(c1c(Cl)cccc1Cl)N1CCC[C@@H]1CN1CCCC1`: the “% Inhibition” value was 35% and the Z score is given as -0.75.

As to `COc1ccc(S(=O)(=O)N2CCOC[C@H](Oc3ccccc3)C2)cc1`, the “% Inhibition” value was found to be 31% and the Z score is -3.47.

Take `C=C[C@H]1OCC[C@@H]1NC(=O)NC(C)c1nnnn1C` (stereo partly specified): the “% Inhibition” value was 7% and the Z score is -1.09.

In the case of `CCc1csc(NCc2cccc(N)n2)n1`, the “% Inhibition” value was -12% and the Z score is 2.23.

As to `CCN1CCCC[C@H]1C(=O)NCCCN(C)c1ccccc1`, the “% Inhibition” value is given as -6% and the Z score came to 0.85.

For `COc1cc(C(=O)N2CCN[C@H](c3ccc(O)cc3)C2)ncn1`, the “% Inhibition” value was -23% and the Z score was 4.89.

Regarding `Cn1nccc1C(=O)Nc1ccccc1CCc1nc2ccccc2[nH]1`, the “% Inhibition” value is 3% and the Z score is recorded as -0.61.

Take `O=C(COCc1ccccc1Cl)N[C@H]1CCN(C2CC2)C1`: the “% Inhibition” value is -4% and the Z score is 0.54.

For the compound `O=C(CC[C@H]1CCCO1)NS(=O)(=O)c1cccnc1`, the “% Inhibition” value is -6% and the Z score was 0.65.

As to `COc1ccccc1-c1c(C)nn2c(N3CCN(C(=O)c4ccco4)CC3)cc(C)nc12`, the “% Inhibition” value was 4% and the Z score is recorded as -0.69.

Regarding `O=C1[C@H](c2ccc(Cl)cc2)N(C2CCCCCCC2)C(=O)CN1C1CCCC1`, the “% Inhibition” value is -13% and the Z score came to 1.4.

`CC(C)[C@H](NC1CCOCC1)C(=O)Nc1ccc(F)cn1`: the “% Inhibition” value is reported as -1% and the Z score was 0.16.

Regarding `CCc1ccc(C(=O)N[C@](C)(C#N)CC)cc1`, the “% Inhibition” value came out at 0% and the Z score is listed as 0.02.

In the case of `CC(C)Cc1cc(CNC(=O)Cn2nnnc2N)on1`, the “% Inhibition” value worked out at 6% and the Z score is reported as -0.76.

Consider `C[C@]1(Cc2ccc(Cl)s2)CCCN1C(=O)Cn1cncn1`, for which the “% Inhibition” value is given as -3% and the Z score was determined as 0.4.

Regarding `C[C@@]1(C(=O)NCc2csc(N)n2)CCCCO1`, the “% Inhibition” value stood at 4% and the Z score was -0.61.

Take `CCOc1ccc(CN2C(=O)c3ccccc3C2=O)cc1C(=O)OCc1nnsc1Cl`: the “% Inhibition” value was -10% and the Z score is reported as 1.43.

As for `Cc1nnc(NC(=O)c2coc(NC(=O)c3ccco3)n2)s1`, the “% Inhibition” value is 0% and the Z score is reported as -0.05.

For `COc1ccc(C(=O)N(C(=O)c2ccc(OC)c(OC)c2)c2nc(-c3ccccc3O)cs2)cc1OC`, the “% Inhibition” value is on record as -2% and the Z score was 0.32.

Consider `COc1cccc(CN2CC3(CCN(c4ccccn4)CC3)CC2=O)c1`, for which the “% Inhibition” value is recorded as 4% and the Z score is -0.55.

As for `O=C(Cc1cccc2ccccc12)N1C[C@@H](CO)[C@H](c2ccccn2)C1`, the “% Inhibition” value was -2% and the Z score was 0.28.

Consider `CCS(=O)(=O)c1ccc(-c2nnc(NC(=O)c3cn(C)nc3OC)o2)cc1`, for which the “% Inhibition” value is recorded as 2% and the Z score is -0.37.

Regarding `O=C(Cn1ncccc1=O)N1CC[C@H](S(=O)(=O)c2ccc(Cl)cc2)C1`, the “% Inhibition” value worked out at 4% and the Z score is listed as -0.71.

With `COc1cccc(-c2nnc(NC(=O)CCN(CCc3ccc(OC)c(OC)c3)C(=O)CCC3CCCC3)s2)c1`, the “% Inhibition” value is given as -2% and the Z score amounted to 0.29.

Consider `Cn1cccc1-c1nnc2n1CCOC2`, for which the “% Inhibition” value was -7% and the Z score amounted to 1.37.

In the case of `Cc1cc(Cl)ccc1C(=O)N1CCC[C@H](Cn2cc(C(C)(C)N)nn2)C1`, the “% Inhibition” value was 1% and the Z score is reported as -0.24.

In the case of `COc1ccccc1C(=O)Nc1ccc2c(c1)C(=O)N1CCC[C@H]1C(=O)N2`, the “% Inhibition” value is listed as -5% and the Z score was 0.74.

Turning to `CC(C)S(=O)(=O)NC(=O)c1csc(Cl)c1`, the “% Inhibition” value is on record as -7% and the Z score is reported as 0.83.

For `Cc1nc(C(C)C)ncc1C(=O)N[C@@H](C)c1nncn1C(C)C`, the “% Inhibition” value is recorded as -10% and the Z score was found to be 1.32.

`Cn1c(=O)[nH]cc(C(=O)NCCc2ccccc2)c1=O`: the “% Inhibition” value is 2% and the Z score is -0.46.

Consider `Cc1cccc2[nH]c(COCC(=O)N3C[C@@H]4NCCO[C@H]4C3)nc12`, for which the “% Inhibition” value is -4% and the Z score was determined as 0.74.

As for `COc1ccccc1CC(C)(C)NC(=O)C[C@H]1CCS(=O)(=O)C1`, the “% Inhibition” value was -5% and the Z score was determined as 1.

For `Cn1cc(-c2ccc(C(=O)N3CCC[C@H]3C(F)(F)F)o2)cn1`, the “% Inhibition” value is -4% and the Z score came to 0.81.

`CC(=O)Nc1ccc(Oc2cc(NC(=O)c3nc4nc(-c5ccccc5)cc(C(F)(F)F)n4n3)cc(Oc3ccc(F)cc3)c2)cc1`: the “% Inhibition” value is -55% and the Z score worked out at 6.5.

Regarding `COCCN1C(=O)CN(C2CCC(C)CC2)C(=O)[C@@H]1c1cccs1` (stereo partly specified), the “% Inhibition” value is listed as 25% and the Z score is recorded as -2.82.

With `Cc1n[nH]c(C)c1CCC(=O)N1CC[C@H](n2cnc3ccccc32)C1`, the “% Inhibition” value was -5% and the Z score is reported as 0.63.

Regarding `N#Cc1ccc(Cn2cnc3c2c(=O)n(C2CC2)c(=O)n3-c2ccccc2Cl)cc1`, the “% Inhibition” value is -3% and the Z score was found to be 0.31.

Regarding `CC[C@H](NCc1cccnc1-n1ccnc1)c1ccccc1O`, the “% Inhibition” value is given as -5% and the Z score turned out to be 0.74.

Regarding `COC[C@@]1(C)CCN(C(=O)c2c[nH]c3cccc(F)c23)C1`, the “% Inhibition” value worked out at 5% and the Z score is on record as -0.66.

Regarding `Cc1cc(C)nc(N[C@H]2CN(S(C)(=O)=O)C[C@@H]2C2CC2)n1`, the “% Inhibition” value is -12% and the Z score worked out at 1.59.

As for `CC(=O)N1C[C@@H](O)C[C@@H]1C(=O)NCc1occc1C`, the “% Inhibition” value is 1% and the Z score was -0.08.

On to `COc1ccc(F)cc1C(Nc1ccnc(C(=O)O)c1)[C@H]1C[C@@H](O)C1` (stereo partly specified), for which the “% Inhibition” value was found to be 4% and the Z score is listed as -0.59.

As for `COc1cc2c(cc1OC)[C@H](CNC(=O)c1ccco1)N(Cc1ccccc1C)CC2`, the “% Inhibition” value was -18% and the Z score was 1.55.
